# Data published in PubChem BioAssay (Tox21).
# Values joined by “and” are separate entries in the source; they are usually repeats but may differ in a detail not shown here. Equal values may be shown once. The shares of active, inactive and inconclusive entries below differ from those in the screen. For some assays here: A potency beside an inconclusive call is a rough fit, not a confirmed value. Active and inactive are the calls of the source. Unless noted, calls follow the shape of the dose curve; as a rule, active = well fitted curve in the direction sought with a large enough effect in the repeat runs; inconclusive = weak or mixed curves; inactive = no such curve, though single readings can be large; an effect the other way counts as inactive or inconclusive.
# Columns and labels:
# [1] = qHTS assay to identify small molecule antagonists of the vitamin D receptor (VDR) signaling pathway - cell viability counter screen (AID 743225); details: VDR-bla HEK293T viability, CellTiter-Glo luminescence, 16 h; viability change, negative = cytotoxic: at 61 µM (top of the series) unless noted; also: nearly all actives have a fitted effect of over 50% in size; also: potency is read from the fitted curve at half-maximal effect; as to viability change, negative = cytotoxic: % is scaled to controls: 0 for no effect and ±100 for the full control effect
# Outline: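 Same-well multiplex: following 16 h treatment of HEK 293T cells carrying a UAS-driven beta-lactamase reporter with compound and agonist (3 nM final), and a 2 h FRET substrate step, CellTiter-Glo was added and luminescence read after 30 min.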
# [2] = target: Estrogen receptor beta (Homo sapiens) (UniProt Q92731); assay: qHTS assay to identify small molecule agonists of the estrogen receptor beta (ER-beta) signaling pathway (AID 1259377; active = well fitted activation curve with a large enough effect in the signal ratio in the repeat runs, not every such curve was filed as active; inconclusive = weak or mixed curves, or effect the other way; the % refers to the signal ratio; also: % is scaled to controls: 0 for no effect and ±100 for the full control effect); details: ER-beta-UAS-bla HEK293T, beta-lactamase FRET ratio, 16 h; activation: at 92.4 µM (top of the series) unless noted
# Sequence of UniProt Q92731 (Q92731 whole entry, looked up): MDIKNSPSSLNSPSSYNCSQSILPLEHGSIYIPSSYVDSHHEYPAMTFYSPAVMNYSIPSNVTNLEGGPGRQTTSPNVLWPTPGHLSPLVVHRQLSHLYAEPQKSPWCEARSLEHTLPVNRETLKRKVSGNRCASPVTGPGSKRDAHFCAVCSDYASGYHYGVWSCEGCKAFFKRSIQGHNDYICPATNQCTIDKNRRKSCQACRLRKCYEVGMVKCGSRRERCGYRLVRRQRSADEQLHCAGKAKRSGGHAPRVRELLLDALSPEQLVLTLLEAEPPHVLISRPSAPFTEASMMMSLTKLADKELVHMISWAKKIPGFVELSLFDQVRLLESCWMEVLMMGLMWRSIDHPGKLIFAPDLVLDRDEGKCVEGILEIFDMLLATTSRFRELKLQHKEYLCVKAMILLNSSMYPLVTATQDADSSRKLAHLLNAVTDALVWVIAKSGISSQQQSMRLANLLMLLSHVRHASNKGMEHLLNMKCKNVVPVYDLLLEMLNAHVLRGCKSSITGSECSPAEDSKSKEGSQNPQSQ
# Outline: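 qHTS in ER-beta-UAS-bla HEK293T cells: 6 hr settling, then 16 hr compound at 37C, then LiveBLAzer substrate 2 h at RT before fluorescence reading.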
# [3] = qHTS assay to identify small molecule antagonists of the peroxisome proliferator-activated receptor delta (PPARd) signaling pathway - cell viability counter screen (AID 743213); details: PPARd-bla HEK293H viability, CellTiter-Glo luminescence, 17 h; viability change, negative = cytotoxic: at 62 µM (top of the series) unless noted; also: nearly all actives have a fitted effect of over 50% in size; also: potency is read from the fitted curve at half-maximal effect
# Outline: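 Cytotoxicity counter screen: CellTiter-Glo luminescence read 30 min after addition, in the same wells as the reporter assay. There, PPARd UAS-bla HEK293H cells (3000/well) were treated 17 h at 37 C with compound and 300 nM L165041.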
# [4] = qHTS assay to identify small molecule agonists of the estrogen receptor beta (ER-beta) signaling pathway - cell viability counter screen (AID 1259380); also: nearly all actives have a fitted effect of over 30% in size; also: potency is read from the fitted curve at half-maximal effect
# Outline: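 Cell viability counter screen: CellTiter-Glo luminescence (30 min, room temperature) measured in the same wells as the beta-lactamase readout, after 16 hr compound exposure at 37C of ER-beta-bla HEK293T cells in 2% charcoal-stripped FBS medium.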
# [5] = qHTS assay to identify small molecule agonists of the estrogen receptor alpha (ER-alpha) signaling pathway in the presence of an antagonist - cell viability counter screen (AID 1259386); also: potency is read from the fitted curve at half-maximal effect; nearly all actives have a fitted effect of over 30% in size
# Outline: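 Compounds tested at 15 concentrations for 22 h at 37C alongside 10.0nM (final) ICI-182,780 antagonist, in VM7Luc4E2 cells grown in phenol red-free, charcoal-stripped medium. Viability read by CellTiter-Fluor fluorescence after 1 h reagent incubation.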
# [6] = qHTS assay to identify small molecule antagonists of the peroxisome proliferator-activated receptor gamma (PPARg) signaling pathway - cell viability counter screen (AID 743194); details: PPARg-bla HEK293H viability, CellTiter-Glo luminescence, 17 h; Potency: co-treated with 50 nM rosiglitazone unless noted; activity change, negative = cytotoxicity: at 62.6 µM (top of the series), co-treated with 50 nM rosiglitazone unless noted; also: nearly all actives have a fitted effect of over 55% in size; also: potency is read from the fitted curve at half-maximal effect
# Outline: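 Cytotoxicity counter screen in PPARg-bla HEK293H cells, same wells as reporter assay. Compounds plus 50 nM rosiglitazone (final) for 17 h at 37 C, then viability read by CellTiter-Glo luminescence.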
# [7] = target: Peroxisome proliferator-activated receptor delta (Homo sapiens) (UniProt Q03181); assay: qHTS assay to identify small molecule antagonists of the peroxisome proliferator-activated receptor delta (PPARd) signaling pathway (AID 743215; active = well fitted inhibition curve with a large enough effect in the signal ratio in the repeat runs, not every such curve was filed as active; inconclusive = weak or mixed curves, or effect the other way; inactive = no such curve, though single readings can be large or run the other way; the % refers to the signal ratio;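 also: cells stimulated with agonist L165041 at 300 nM final during compound exposure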; also: potency is read from the fitted curve at half-maximal effect); details: HEK293H PPARd-UAS-bla, beta-lactamase FRET ratio, antagonist, 17 h; ratio activity, negative = inhibition: at 62 µM (top of the series) unless noted
# Sequence of UniProt Q03181 (Q03181 whole entry, looked up): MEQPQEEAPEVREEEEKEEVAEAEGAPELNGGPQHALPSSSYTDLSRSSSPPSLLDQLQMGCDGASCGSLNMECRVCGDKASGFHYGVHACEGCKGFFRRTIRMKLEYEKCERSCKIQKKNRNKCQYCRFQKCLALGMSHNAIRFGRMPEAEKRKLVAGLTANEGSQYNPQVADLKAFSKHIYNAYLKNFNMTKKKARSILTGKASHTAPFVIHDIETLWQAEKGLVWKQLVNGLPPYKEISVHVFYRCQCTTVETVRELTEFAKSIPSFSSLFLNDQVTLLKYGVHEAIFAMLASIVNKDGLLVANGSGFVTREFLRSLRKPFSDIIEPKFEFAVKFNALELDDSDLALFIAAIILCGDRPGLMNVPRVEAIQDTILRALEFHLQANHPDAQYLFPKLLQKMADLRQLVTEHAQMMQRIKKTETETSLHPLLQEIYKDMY
# Outline: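 Agonist L165041 (300 nM final) added with compound to PPARd-bla HEK293H UAS-bla reporter cells; 17 h incubation at 37 C. Read-out: LiveBLAzer FRET substrate, 2 h at room temperature, fluorescence intensity.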
# [8] = qHTS assay to identify small molecule antagonists of the progesterone receptor (PR) signaling pathway - cell viability counter screen (AID 1346798); also: nearly all actives have a fitted effect of over 50% in size; also: potency is read from the fitted curve at half-maximal effect
# Outline: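 CellTiter-Glo luminescence; PR-UAS-bla HEK293T, 3,000 cells/well; compound + R5020, 16 hr, 37C/5% CO2; 30 min RT before read.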
# [9] = target: Thyrotropin receptor (Homo sapiens) (UniProt P16473); assay: qHTS assay to identify small molecule agonists of the thyroid stimulating hormone receptor (TSHR) signaling pathway (AID 1224843; calls by dose curve; also: nearly all actives have a fitted effect of over 45% in size; also: potency is read from the fitted curve at half-maximal effect); details: TSHR-HEK293 cells, cAMP HTRF, agonist mode, 30 min; activation: at 92.4 µM (top of the series) unless noted
# Sequence of UniProt P16473 (P16473 whole entry, looked up): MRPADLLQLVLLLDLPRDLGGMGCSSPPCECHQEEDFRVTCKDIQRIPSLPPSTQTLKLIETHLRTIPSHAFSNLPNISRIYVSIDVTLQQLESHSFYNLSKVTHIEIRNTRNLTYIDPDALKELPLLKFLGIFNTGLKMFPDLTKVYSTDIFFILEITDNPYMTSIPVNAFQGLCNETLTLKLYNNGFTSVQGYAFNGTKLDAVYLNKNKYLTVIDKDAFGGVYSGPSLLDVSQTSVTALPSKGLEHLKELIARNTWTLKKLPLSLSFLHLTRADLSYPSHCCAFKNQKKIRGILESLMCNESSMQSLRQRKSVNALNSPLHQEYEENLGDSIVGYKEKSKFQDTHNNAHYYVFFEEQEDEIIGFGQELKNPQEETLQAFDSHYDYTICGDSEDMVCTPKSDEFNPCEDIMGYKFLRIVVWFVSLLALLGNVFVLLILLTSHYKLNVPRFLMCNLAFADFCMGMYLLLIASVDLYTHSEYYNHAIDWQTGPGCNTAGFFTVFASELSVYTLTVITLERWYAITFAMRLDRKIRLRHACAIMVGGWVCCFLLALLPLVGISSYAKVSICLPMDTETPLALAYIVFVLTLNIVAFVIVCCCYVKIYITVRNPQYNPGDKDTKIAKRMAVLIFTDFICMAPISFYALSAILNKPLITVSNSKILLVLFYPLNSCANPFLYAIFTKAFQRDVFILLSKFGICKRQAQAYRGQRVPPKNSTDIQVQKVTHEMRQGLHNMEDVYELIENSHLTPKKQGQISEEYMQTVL
# Outline: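 Agonist-mode screen: TSHR HEK293 cells received test chemicals for half an hour at room temperature, then HTRF cAMP detection reagents for one hour prior to fluorescence measurement. Each chemical ran as a 15-concentration series, triplicated.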
# [10] = target: Estrogen receptor beta (Homo sapiens) (UniProt Q92731); assay: qHTS assay to identify small molecule antagonists of the estrogen receptor beta (ER-beta) signaling pathway (AID 1259378; active = well fitted inhibition curve with a large enough effect in the signal ratio in the repeat runs, not every such curve was filed as active; inconclusive = weak or mixed curves, or effect the other way; inactive = no such curve, though single readings can be large or run the other way; the % refers to the signal ratio; also: % is scaled to controls: 0 for no effect and ±100 for the full control effect); details: ER-beta-UAS-bla HEK293T, beta-lactamase FRET ratio, 16 h; activity, negative = inhibition: at 92.4 µM (top of the series) unless noted
# Outline: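 ER-beta-UAS-bla HEK293T cells in 2% charcoal-stripped FBS medium treated with compound plus 1nM final 17-beta-estradiol for 16 hr at 37C. Beta-lactamase reporter read by FRET substrate fluorescence after 2 hours at room temperature.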
# [11] = target: Peroxisome proliferator-activated receptor gamma (Homo sapiens) (UniProt P37231); assay: qHTS assay to identify small molecule agonists of the peroxisome proliferator-activated receptor gamma (PPARg) signaling pathway (AID 743094; active = well fitted activation curve with a large enough effect in the signal ratio in the repeat runs, not every such curve was filed as active; inconclusive = weak or mixed curves, or effect the other way; inactive = no such curve, though single readings can be large or run the other way; the % refers to the signal ratio; also: % is scaled to controls: 0 for no effect and ±100 for the full control effect); details: HEK293H PPARg-UAS-bla, beta-lactamase FRET ratio, 17 h; activation: at 57 µM (top of the series) unless noted
# Sequence of UniProt P37231 (P37231 whole entry, looked up): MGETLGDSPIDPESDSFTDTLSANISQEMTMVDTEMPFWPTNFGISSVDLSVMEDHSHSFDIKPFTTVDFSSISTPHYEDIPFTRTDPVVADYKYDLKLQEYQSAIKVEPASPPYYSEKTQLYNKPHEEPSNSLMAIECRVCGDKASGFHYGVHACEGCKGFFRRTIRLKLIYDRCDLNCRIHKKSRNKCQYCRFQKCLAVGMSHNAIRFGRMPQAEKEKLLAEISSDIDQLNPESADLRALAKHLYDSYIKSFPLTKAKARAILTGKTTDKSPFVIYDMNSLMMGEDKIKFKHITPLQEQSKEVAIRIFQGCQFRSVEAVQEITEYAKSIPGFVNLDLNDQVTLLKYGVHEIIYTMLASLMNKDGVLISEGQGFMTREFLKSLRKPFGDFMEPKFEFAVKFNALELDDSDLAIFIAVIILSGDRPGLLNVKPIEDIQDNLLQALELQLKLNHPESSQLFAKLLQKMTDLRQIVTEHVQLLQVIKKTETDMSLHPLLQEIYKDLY
# Outline: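 Agonist activity was taken from a beta-lactamase reporter (FRET substrate, 1 h at room temperature) in HEK293H cells carrying a PPARg UAS-bla construct. Compounds in DMSO were incubated 17 h at 37C after a 5 h cell pre-incubation.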
# [12] = qHTS assay to identify small molecule agonists of H2AX - cell viability counter screen (AID 1224847; calls by dose curve;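 also: wild-type CHO-K1 cells; top concentration of the series differs between compounds; % is scaled to controls: 0 for no effect and ±100 for the full control effect; nearly all actives have a fitted effect of over 30% in size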)
# Outline: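 For this counter screen, overnight-attached CHO-K1 cells received test compounds (15 concentrations, 0.76% DMSO final); 3 hr later at 37C, CellTiter-Glo reagent was added and luminescence recorded after 30 min at room temperature.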
# [13] = target: Nuclear receptor subfamily 1 group I member 2 (Homo sapiens) (UniProt O75469); assay: Human pregnane X receptor (PXR) small molecule agonists, qHTS assay (AID 1346982); also: potency is read from the fitted curve at half-maximal effect; nearly all actives have a fitted effect of over 35% in size
# Sequence of UniProt O75469 (O75469 whole entry, looked up): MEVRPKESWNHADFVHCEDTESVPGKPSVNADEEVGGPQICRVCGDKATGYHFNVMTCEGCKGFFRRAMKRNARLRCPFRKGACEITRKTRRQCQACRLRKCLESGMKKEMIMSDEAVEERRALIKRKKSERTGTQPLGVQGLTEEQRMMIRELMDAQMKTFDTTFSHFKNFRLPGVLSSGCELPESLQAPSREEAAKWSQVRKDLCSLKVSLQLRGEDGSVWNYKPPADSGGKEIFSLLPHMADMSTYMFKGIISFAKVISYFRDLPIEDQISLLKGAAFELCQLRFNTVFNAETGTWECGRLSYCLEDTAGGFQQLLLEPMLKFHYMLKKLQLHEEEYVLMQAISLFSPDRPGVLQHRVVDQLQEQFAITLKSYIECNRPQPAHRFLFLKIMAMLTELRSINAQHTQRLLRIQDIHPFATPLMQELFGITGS
# Outline: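 Agonist mode: luminescence from ONE-Glo after 24 h compound exposure at 37C in HepG2 cells carrying hPXR-responsive CYP3A4 luciferase, plated in charcoal-stripped serum medium 5 h beforehand.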
# [14] = qHTS RealTime-Glo MT Cell Viability Assay in HEK293 cells - 24 hour (AID 1224886); also: top concentration of the series differs between compounds; % is scaled to controls: 0 for no effect and ±100 for the full control effect; nearly all actives have a fitted effect of over 50% in size
# Outline: (§1)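 Viability tracked continuously by luminescence as live cells reduce a prosubstrate for NanoLuc; HEK293 cells preincubated 5 h, compound-treated at 37 C, and read at 0, 8, 16, 24, 32 and 40 h.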
# [15] = qHTS RealTime-Glo MT Cell Viability Assay in HEK293 cells - 32 hour (AID 1224868); also: nearly all actives have a fitted effect of over 50% in size; also: potency is read from the fitted curve at half-maximal effect
# Outline: as §1
# [16] = qHTS RealTime-Glo MT Cell Viability Assay in HEK293 cells - 40 hour (AID 1224874); details: RealTime-Glo luminescence; max response: stronger effect = lower value
# Outline: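 Luminescence, which tracks viable cell number through reduction of the prosubstrate to a NanoLuc substrate, was read over continuous 37 C culture. Cells (600/well) were premixed with reagent and rested 5 h before 23 nL of compound in DMSO was pinned.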
# [17] = qHTS assay for small molecule agonists of the p53 signaling pathway (AID 651631; calls by dose curve; also: % is scaled to controls: 0 for no effect and ±100 for the full control effect; nearly all actives have a fitted effect of over 15% in size); details: HCT-116 p53RE-bla reporter, beta-lactamase FRET ratio, 16 h; activation: at 73.3 µM (top of the series) unless noted
# Outline: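 Testing took place in human colorectal HCT-116 cells with stable p53RE-driven beta-lactamase. After 16 h of compound exposure at 37 °C, a FRET substrate was added and fluorescence recorded 2 h later.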
# [18] = qHTS assay for identifying genotoxic compounds that show differential cytotoxicity against isogenic chicken DT40 cell lines with known DNA damage response pathways - Rad54/Ku70 mutant cell line (AID 743015); details: DT40 Rad54/Ku70 mutant viability, CellTiter-Glo, 40 h; activity change, negative = cytotoxicity: at 66.8 µM (top of the series); also: % is scaled to controls: 0 for no effect and ±100 for the full control effect; nearly all actives have a fitted effect of over 60% in size
# Tags tell the direction and shape of the fitted curve or compound fluorescence and quenching.
structure (smiles),measurement,setting,value
CCC1(CC)C(=O)NC(=O)NC1=O,Potency,[1],"inconclusive: 1510 nM [cytotoxic, partial curve, poor fit]"
same,Potency,[2],inactive
N=C(N)[Se],Potency,[3],"inconclusive: 438 nM [cytotoxic, full curve, poor fit]"
same,Potency,[1],inactive
same,activation,[2],inconclusive: 6.74%
same,Potency,[4],"inconclusive: 61300 nM [cytotoxic, partial curve]"
same,Potency,[5],inconclusive: 30700 nM [cytotoxic]
Clc1ccccc1,Potency,[6],inactive
same,Potency,[3],"inconclusive: 13.6 nM [cytotoxic, full curve, poor fit]"
same,Potency,[7],"inconclusive: 21.6 nM [fluorescent, full curve, poor fit]"
same,Potency,[1],inactive
same,Potency,[8],inactive
CC(C)NCC(O)c1ccc(N)c(C#N)c1 (stereo not drawn),Potency,[9],active: 2.1 nM
same,Potency,[2],inactive
same,"activity, negative = inhibition",[10],inconclusive: 3.83% [at 42.5 µM]
same,Potency,[8],"inconclusive: 3350 nM [cytotoxic, single point]"
O=C1CN=C(c2ccccc2)c2cc([N+](=O)[O-])ccc2N1,Potency,[11],inactive
same,Potency,[12],inactive
same,Potency,[10],inactive
same,Potency,[13],"inconclusive: 106 nM [activator, partial curve, poor fit]"
CCCC(C)C1(CC)C(=O)N=C(S)NC1=O (stereo not drawn),Potency,[14],inactive
CCCCCCCCCCCCN(C)C,Potency,[6],"inconclusive: 1.95 µM [cytotoxic, full curve, poor fit]"
same,Potency,[9],inactive
same,Potency,[15],inactive
same,max response,[16],inactive: -4.6%
ClCCCN1CCN(c2cccc(Cl)c2)CC1,Potency,[6],"inconclusive: 33.5 µM [rising, partial curve, poor fit] [setting not given]"
same,Potency,[7],inactive
same,Potency,[1],"inconclusive: 6740 nM [cytotoxic, partial curve, poor fit]"
Cc1cccc(OP(=O)(Oc2cccc(C)c2)Oc2cccc(C)c2)c1,Potency,[4],inactive
CC(C)(Cl)Cl,Potency,[7],"inconclusive: 49 nM [fluorescent, partial curve, poor fit]"
same,max response,[16],inactive: 0.337% and inactive: 2.87%
COC(=O)NS(=O)(=O)c1ccc(N)cc1,Potency,[11],inactive
same,Potency,[3],"inactive and inconclusive: 155 nM [cytotoxic, full curve, poor fit]"
same,Potency,[15],"inconclusive: 49000 nM [rising, single point]"
same,Potency,[13],"inconclusive: 68900 nM [activator, partial curve, poor fit]"
N#CCBr,Potency,[17],inactive
same,Potency,[18],inactive
same,Potency,[3],inactive
